From PubChem BioAssay AID463173 (ICCB-Longwood Screening Facility, Harvard Medical School, 2010) come the findings set out here.

In all, about 52,000 compounds went through this assay and about 4,300 (8.3%) were called active. No stated cut-off is given here; in the data, active means survival mostly below about 52% (no sharp cut-off); inactive means mostly above about 56%. This is one part of the list.

For the test, the system named is DeltatarO mutant. The test is described as follows: S. aureus survival, RN4220 and DeltatarO strains – OD600, teichoic acid synthesis inhibitors, primary screen (AID 463173). The note with it: S. aureus RN4220 wild type/DeltatarO growth, OD600, 18 h, stronger effect = lower value, screened at 18.75 µg/mL (by protocol).
As to `Cc1ccc(CNC(=O)CSc2nc3ccsc3c(=O)n2-c2ccc(Br)cc2)cc1`, the survival is inactive: 55%.
With `Cn1c(C(=O)NCCc2ccccc2)cc2sc(Cl)cc21` the figure was inactive: 110%; with `CCOC(=O)N1CCN(c2ncc3c(n2)CC(c2ccc(Cl)cc2)CC3=O)CC1` (centres undefined), inactive: 75%; with `CC(=O)NC(C)c1nc2ccccc2n1Cc1ccccc1Cl` (centres undefined), inactive: 83%.
The same measure for `CCOCCCNC(=O)c1ccc(Cn2c(=O)c3cccn3c3cccnc32)cc1`: inactive: 58%; for `Cc1ccc(C)c(NC(=O)C2CCCN2S(=O)(=O)c2ccc3c(c2)n(C)c(=O)c(=O)n3C)c1` (centres undefined): active: 38%.
The same measure for `CCOC(=O)CCCCN(Cc1ccccc1F)S(=O)(=O)c1ccc(F)c(C(=O)Nc2cc(Cl)cc(Cl)c2)c1`: inactive: 87%; for `COc1cc(-c2noc(-c3ccc(NC4CCCC4)c([N+](=O)[O-])c3)n2)cc(OC)c1OC`: inactive: 56%.
As to `COc1ccc(-c2noc(-c3cc(-c4ccc(F)cc4)n[nH]3)n2)cc1`, the survival is inactive: 96%.
For `O=C(NCc1ccc(F)cc1)c1nnc(Cc2cccc(F)c2)o1`, the survival was inactive: 81%.
With `CCOc1ccc(NC(=O)Nc2cc3c(cc2N2CCCCC2)n(C)c(=O)n3C)cc1` the figure was inactive: 102%.
The same measure for `COc1cc(NC(=O)CN2CCCN(S(=O)(=O)c3ccc(F)cc3)CC2)cc(OC)c1`: inactive: 74%; for `O=C(Nc1ccccc1Br)c1cc(S(=O)(=O)NC2CCCCC2)ccc1F`: inactive: 119%.
With `CCOC(=O)c1cc(S(=O)(=O)Nc2c(C)cc(C)cc2C)[nH]n1` the figure was inactive: 94%; with `Cc1ccc2nc(-c3ccc(NC(=O)COc4ccccc4C(C)(C)C)cc3)sc2c1`, inactive: 114%; with `CCOC(=O)C1CCN(C(=O)c2ccc3c(c2)sc2nc(-c4ccc(OC)cc4)cn23)CC1`, inactive: 78%.
Regarding `CCOc1ccc(S(=O)(=O)NCc2nc3cccnc3n2Cc2ccccc2OC)cc1`, the survival was inactive: 89%.
As to `CCCOc1ccc(-c2nc3ccc(Br)cc3c(=O)o2)cc1`, the survival was inactive: 81%.
The same measure for `CCCCNC(=O)CSc1nc2n[nH]c(C)c2c(=N)n1-c1cccc(C)c1`: inactive: 89%; for `Cc1c(C(=O)OC2CCCCCC2)[nH]c2c1C(=O)CC(c1ccccc1)C2` (centres undefined): inactive: 92%; for `Cc1nc2ccc(S(=O)(=O)NC(CC(C)C)C(=O)NCc3ccc(Cl)cc3)cc2s1` (centres undefined): inactive: 66%.
As to `COc1ccc(C2=NC(C)(C)N(CC(=O)Nc3cc(OC)cc(OC)c3)C2=O)cc1`, the survival is inactive: 107%.
The same measure for `CN(c1ccc(F)cc1)S(=O)(=O)N1CCCC(C(=O)NCCc2ccccc2)C1` (centres undefined): inactive: 105%.
With `Cc1ccc(-c2cc3nccc(-c4cc([N+](=O)[O-])ccc4O)n3n2)cc1` the figure was active: 29%.
